# Measurements reported in paper PMC4336329 (PLoS ONE, 2015).
# In all, about 310,000 compounds went through this assay and about 14,000 (4.5%) showed an effect of 50% or more. Effects have a minus sign here. Some of the results follow.
# Target: human ether-à-go-go-related gene (hERG) potassium channel (human, UniProt Q12809)
# Test: primary screen, population patch clamp on CHO cells stably expressing hERG
# 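Note: peak tail current of the secondary pulse compared with the same well before compound.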
# human ether-à-go-go-related gene (hERG) potassium channel, sequence (Q12809 whole entry, looked up): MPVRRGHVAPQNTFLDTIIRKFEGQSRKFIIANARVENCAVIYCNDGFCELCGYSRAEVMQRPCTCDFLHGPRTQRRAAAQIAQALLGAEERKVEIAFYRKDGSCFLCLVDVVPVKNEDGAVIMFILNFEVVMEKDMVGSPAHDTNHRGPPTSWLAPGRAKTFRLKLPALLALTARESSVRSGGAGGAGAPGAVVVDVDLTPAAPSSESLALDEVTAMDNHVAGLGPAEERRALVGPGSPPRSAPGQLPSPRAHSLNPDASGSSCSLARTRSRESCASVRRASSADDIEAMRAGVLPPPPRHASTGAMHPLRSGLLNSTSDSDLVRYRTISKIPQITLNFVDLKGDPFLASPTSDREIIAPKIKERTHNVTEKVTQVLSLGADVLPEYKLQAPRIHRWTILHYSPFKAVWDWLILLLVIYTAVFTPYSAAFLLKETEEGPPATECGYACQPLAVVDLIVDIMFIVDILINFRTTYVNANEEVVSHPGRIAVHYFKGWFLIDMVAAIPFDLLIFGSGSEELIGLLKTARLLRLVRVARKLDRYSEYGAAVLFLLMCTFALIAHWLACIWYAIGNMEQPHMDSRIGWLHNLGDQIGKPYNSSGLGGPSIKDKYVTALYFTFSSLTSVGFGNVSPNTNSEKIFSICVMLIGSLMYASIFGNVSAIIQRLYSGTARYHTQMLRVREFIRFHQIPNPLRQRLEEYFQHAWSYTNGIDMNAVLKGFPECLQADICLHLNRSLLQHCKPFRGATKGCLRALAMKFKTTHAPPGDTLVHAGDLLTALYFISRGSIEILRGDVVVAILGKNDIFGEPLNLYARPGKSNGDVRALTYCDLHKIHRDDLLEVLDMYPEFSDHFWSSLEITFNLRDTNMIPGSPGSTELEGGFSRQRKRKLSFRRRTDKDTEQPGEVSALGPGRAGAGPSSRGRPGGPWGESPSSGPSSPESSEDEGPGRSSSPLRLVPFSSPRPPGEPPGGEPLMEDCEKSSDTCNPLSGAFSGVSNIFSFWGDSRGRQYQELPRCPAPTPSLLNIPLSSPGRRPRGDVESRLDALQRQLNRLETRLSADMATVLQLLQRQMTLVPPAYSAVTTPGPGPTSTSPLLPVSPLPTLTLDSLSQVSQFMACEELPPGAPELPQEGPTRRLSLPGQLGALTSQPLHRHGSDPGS
row,SMILES,"hERG current change (%, negative = inhibition) at 10uM"
1,COc1cccc(-c2csc(NC3OC(=O)c4c3ccc(OC)c4OC)n2)c1 (stereo not drawn),6.18%
2,Cc1ccc(F)c(Cn2cnc3c(cnn3C(C)(C)C)c2=O)c1Cl,-6.94%
3,O=C(N/N=C/c1cc(Br)ccc1O)C(c1ccncc1)N1CCOCC1 (stereo not drawn),-16%
4,Cc1ccc(-c2c[nH]c(=S)n2-c2ccccc2)cc1,6.41%
5,Cl.NC(=NCc1ccccc1)NC(=O)c1nc(Cl)c(N)nc1N,-54.2%
6,CC(C)(C)C1CC=C2C(C#N)=C(N)C(C#N)(C#N)C(c3cccs3)C2C1 (stereo not drawn),-8.29%
7,COc1ccccc1C(=O)NCCN1CCN(C(=O)c2ccccc2OC)CC1,-48.6%
8,CN1CCC(OC(=O)c2cccc(F)c2)CC1.Cl,-0.186%
9,Nc1nonc1-n1nnc(C(=O)N/N=C/c2cccs2)c1-c1ccc2c(c1)OCO2,0.643%
10,CCN(CC)CCNC(=O)c1ccc(NC(=O)c2c(F)cccc2Cl)cc1,-12.4%
11,COc1ccc(N(C(=O)CNS(=O)(=O)c2ccccc2)C(C(=O)NCc2ccco2)C(C)C)cc1 (stereo not drawn),-4.04%
12,O=C(CCCC(=O)N(CC(=O)NC1CCCC1)Cc1ccccc1Cl)Nc1ccccn1,-8.62%
13,CC(=O)c1ccc(S(=O)(=O)Nc2ccc(-n3cnnn3)cc2)cc1,-6.16%
14,O=C(O)CCCc1nc2ccccc2s1,14.3%
15,NS(=O)(=O)c1cc2c(cc1Cl)NC=NS2(=O)=O,2.86%
16,COc1ccc2c(c1)c(=O)oc1cc(OC(C(=O)O)c3ccccc3)ccc12 (stereo not drawn),23.3%
17,O=C(Cn1c2[n+](c3ccc(C(F)(F)F)cc31)CCCCC2)c1cccc([N+](=O)[O-])c1.[Br-],6.57%
18,C[C@@]12CC(=O)NC1N(C(=O)c1ccccc1)C(c1ccccc1OC(=O)c1ccccc1)C2 (stereo partly drawn),3.16%
19,CN1C(=O)/C(=C\c2ccccc2F)Sc2ccc(C(=O)NC3CCN(Cc4ccccc4)CC3)cc21,-24.4%
20,CCOC(=O)c1sc(NC(=O)CSc2n[nH]c(CC)n2)nc1C,4.82%
21,CCN(CC)CCCOC(=O)c1ccc(OC)cc1O.Cl,-40.9%
22,COc1ccc2cc(Br)ccc2c1CC(=O)N1CCCC1,-3.41%
23,CC(=O)N1N=C(c2ccccc2OC(=O)/C=C/c2ccccc2)CC1c1ccccc1 (stereo not drawn),5.46%

row,SMILES,"hERG current change (%, negative = inhibition) at 10uM"
1,CN1CCN(c2ccc(NC(=O)COc3ccc4ccccc4c3)cc2)CC1,-17.3%
2,COc1cccc(-c2nn3c(-c4ccccn4)nnc3s2)c1,-28%
3,CN(CC(=O)Nc1ccccc1Cl)C(=O)COC(=O)c1ccc(Cl)nc1,4.99%
4,CC1CCCCC1NC(=S)NC(=O)c1cccs1 (stereo not drawn),11.1%
5,COc1ccc(S(=O)(=O)N2CCSC2)cc1C,-9.56%
6,Cn1c(SCC(=O)NCc2ccccc2)nc2ccccc21,12.4%
7,O=[N+]([O-])c1ccc(/C=N/Nc2ncc(Br)cn2)cc1,13.1%
8,CN(C)S(=O)(=O)c1ccc(N2CCCC2)c(C(=O)Nc2ccc(N3CCOCC3)cc2)c1,-7.91%
9,O=C(CCC1CCCC1)N1CCC(N2CCCCCC2)CC1.O=C(O)C(=O)O,-29.9%
10,O=C(CCCN1C(=O)CCC1=O)Nc1ccc2c(c1)OCO2,12.3%
11,CCOC(=O)N1CCC(Nc2c(NCCCN(CC)CC)c(=O)c2=O)CC1,10.2%
12,CC1CCC(C(=O)NC(C(=O)N2CCN(c3ccccn3)CC2)C(C)C)CC1 (stereo not drawn),0.678%
13,Nc1nc2c(Cl)ccc(Cl)c2s1,10.7%
14,Cn1nnc(NC(=O)CSc2ncn[nH]2)n1,7.02%
15,O=C(NCc1nnc(SCC(=O)N2CCCCC2)o1)c1c(F)cccc1F,14.5%
16,COc1ccc(S(=O)(=O)CCC(=O)NC2CCCCC2)cc1,14.3%
17,O=C(NC12CC3CC(CC(C3)C1)C2)N1CCN(C(=O)c2ccco2)CC1,9.56%
18,CCCCn1c(O)c(N=Nc2ccccc2O)c2ccccc21,7.16%
19,C#CCSc1nc(-c2ccccc2)cc(C(F)(F)F)c1C#N,7.12%
20,COc1ccc(/C=C/C(=O)NC(=S)Nc2ccc(S(N)(=O)=O)cc2)cc1,3.93%
21,CCCCOc1ccc(C(=O)NCC(=O)NC2CCCCC2)cc1,15.5%
22,CC1CN(/C=C/C=O)C(C)CC1OC(=O)c1ccccc1 (stereo not drawn),4.7%
23,Cc1ccc(O)c(NC(=O)CSc2n[nH]c(-c3ccccc3)n2)c1,-27.6%

row,SMILES,"hERG current change (%, negative = inhibition) at 10uM"
1,COc1ccccc1-n1cnc(N)c1C(=O)c1ccccc1,-9.25%
2,COc1cccc(NC(=O)c2ccccc2-c2nc(-c3ccc(Cl)cc3)no2)c1,-5.16%
3,O=C(NCCCN1CCOCC1)c1ccc2c(=O)n(Cc3cccc(Br)c3)c(=S)[nH]c2c1,13.1%
4,CCOC(=O)c1ccc(NC(=O)CCc2nnc3ccc(N4CCCC4)nn23)cc1,5.84%
5,CCNC(=O)CC1C(=O)N(C)C(=S)N1NC(=O)c1ccc(Cl)cc1 (stereo not drawn),-6.31%
6,O=C(CSc1nc(C(F)(F)F)cc(=O)[nH]1)NCC1CCCO1 (stereo not drawn),17.1%
7,COc1ccc(CCN2CNc3c(c(=O)n(C)c(=O)n3C)C2)cc1,-17.5%
8,CCC(=O)Nc1nnc(SCC(=O)NCC2CCCO2)s1 (stereo not drawn),-2.9%
9,COc1ccc(CCn2c(-c3ccco3)nc3ccccc3c2=O)cc1OC,-47.4%
10,O=c1c2ccccc2nc2sc3ccccc3n12,9.94%
11,CC1CCN(C(C(=O)NC2CCCCC2)c2cc3c(cc2[N+](=O)[O-])OCO3)CC1 (stereo not drawn),-32.3%
12,CC1CCCCN1C(=O)CCC(=O)Nc1nnc(C2CCCCC2)s1 (stereo not drawn),-3.14%
13,CC(C)Cc1cc(C(=O)N(C)C2CCCN(Cc3ccccc3F)C2)n(C)n1 (stereo not drawn),1.93%
14,COc1cc(OC)cc(C(=O)N2CCN(C3CCCCC3)CC2)c1.O=C(O)C(=O)O,-23.4%
15,O=C(CSC1=Nc2ccccc2C2=NC(CC(=O)NCc3ccco3)C(=O)N12)NCc1ccco1 (stereo not drawn),7.61%
16,O=C(NCC1COc2ccccc2O1)c1ccc(NC(=O)C2CCCO2)cc1 (stereo not drawn),-20.1%
17,COc1cc(C(=O)Nc2ccc(Cl)c([N+](=O)[O-])c2)cc(OC)c1OC,13.9%
18,CCOC(=O)C1CCCN(Cc2ccccc2F)C1 (stereo not drawn),-6.84%
19,O=C(O)CN=C1CC(c2ccccc2)CC(=O)/C1=C(/O)CCCN1C(=O)c2ccccc2C1=O (stereo not drawn),1.09%
20,Fc1cc(Cl)ccc1NC(=S)NCCN1CCOCC1,13.1%
21,O=c1[nH]c(/C=C/c2cccc(Br)c2)nc2ccccc12,11.8%
22,CC1(C)Cc2c(c(-c3ccccc3Cl)[nH]c(=O)c2C#N)CO1,14.8%
23,CCOc1ccc(S(=O)(=O)N(C)c2ccc(OCC(=O)OCc3c(C)noc3C)cc2)cc1,-4.37%

row,SMILES,"hERG current change (%, negative = inhibition) at 10uM"
1,COc1ccc(C(CC(=O)NC(C)c2ccc(-c3ccccc3)cc2)NC(C)=O)cc1 (stereo not drawn),-18.5%
2,N#C/C(=C/c1ccc(N2CCOCC2)o1)c1ccc(Br)cc1,21%
3,C=CCn1c(CNC(=O)c2ccco2)nnc1SCC(=O)N1c2ccccc2Sc2ccccc21,-16.4%
4,O=C1CC(N2CCC(Cc3ccccc3)CC2)C(=O)N1CCc1ccccc1 (stereo not drawn),11.6%
5,COc1ccccc1N1CCN(C(=O)c2ccccc2Oc2ccccc2)CC1,-25.7%
6,CCOc1cc(/C=C2/NC(=O)N(CC(=O)Nc3cccc(C)c3)C2=O)ccc1OC,1%
7,CCOC(=O)Cc1c(C)nc2c(C#N)c[nH]n2c1=O,1.38%
8,FC(F)Oc1ccc(NC(=S)N2CCc3ccccc32)cc1,5.86%
9,CCC(C)[C@H](NC(=O)c1cn(CC)c2cc3c(cc2c1=O)OCO3)C(=O)NCCCn1ccnc1 (stereo partly drawn),15.4%
10,NC(=O)c1ccccc1NC(=O)CN1CCCCCC1,11.1%
11,Cc1nnc2ccc(-c3cccc(NC(=O)c4ccc(Br)o4)c3)nn12,-75.8%
12,Cl.N[C@@H](CO)c1nnc([C@H](CC(=O)O)NC(=O)C2CCNCC2)o1,16.7%
13,CC1CCN(C(=O)CSc2nc3ccccc3s2)CC1,-8.39%
14,Cc1nc(-c2ccc(S(=O)(=O)Nc3ccc(Br)cc3F)cc2)co1,11.6%
15,COc1ccc(C(C)=O)cc1CSc1nncn1C,8.54%
16,COCCNC(=O)c1cc2cc3ccc(OC)cc3nc2o1,12.8%
17,COC(=O)c1c(C)[nH]c(C=O)c1-c1ccccc1,10.3%
18,O=C(O)CCCn1cc(NC(=O)c2ccco2)cn1,26.7%
19,Nc1cccc(C(=O)OCC(=O)NC2CCCc3ccccc32)c1 (stereo not drawn),17.1%
20,COc1ccccc1NC(=O)Cc1nnc(SCC(=O)NC2CCCCC2C)n1C (stereo not drawn),18.5%
21,O=C(NCC1CCN(Cc2ccc(F)cc2)CC1)C1CCCN(c2ncnc3c2nc2n3CCCCC2)C1 (stereo not drawn),-39.6%
